Drawing on article PMC12136788, this text covers binding signal for 22 molecules.

Some of the results follow.

The chains are these.
T1: UNK ZnF1-3 (human, UniProt Q9C0B0 31-174)
T1 sequence: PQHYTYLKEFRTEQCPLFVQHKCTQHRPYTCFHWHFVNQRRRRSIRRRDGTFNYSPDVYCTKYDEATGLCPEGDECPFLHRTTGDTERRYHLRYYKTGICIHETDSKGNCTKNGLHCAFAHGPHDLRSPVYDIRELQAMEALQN

B1: chr3:176743309:176743310:-_ENSG00000177565_ENST00000430069|hu_mus|motif|central (ssRNA)
RNA: GGGAGUUCUACAGUCCGACGAUCUGUACACAUUCAUAGUCGGUCCAUGGCUUCCAACUAGUAACGCUAUUUCCGAAGGUCGGAGACACAAACUGAACCGUCCGAAGCACUGGCUCCAACUUUGUCUCCUGCUGCGUUCCAGCACAACAGAGGAUUGAGCAUCA
B2: chr2:78758850:78758851:+_ENSMUSG00000027011_ENSMUST00000028398|mus_hu|FALSE|FALSE (ssRNA)
RNA: GGGAGUUCUACAGUCCGACGAUCGUCCAGACAGAUGACUCCCUGACUGUUGAUGUUGCAGUGAUAGAUUCUGGUGCGGAAAGUAACCUUUGGUGGCUUAAAUGGAUAAUCUGAUGAAAAUGUGAUAUCCAGAAAAAACACACCCAACAGAGGAUUGAGCAUCA
B3: chr12:39756943:39756944:-_ENSG00000139116_ENST00000544797|hu_mus|hu_hu_hu_mus_False|48_98 (ssRNA)
RNA: GGGAGUUCUACAGUCCGACGAUCGGUUUGGCUGUUACCCCCGAGGGAAUCCUGCAAGAGUCUUGUCAGCUUAGAGUCUCUGUAAGGGACAUGUGUGGCUCUCUUGCUCUUGUCCCCCAAGGCGCUGAUUACAUUCCCAAGAGCCAACAGAGGAUUGAGCAUCA
B4: chr12:39763582:39763583:-_ENSG00000139116_ENST00000544797|hu_mus|hu_hu_hu_mus_False|8_8 (ssRNA)
RNA: GGGAGUUCUACAGUCCGACGAUCCUCUAGGAACUGGGCAUUCACUUUGAAUUCAGGAGGGGGCAGCCCGUUUUUAAUCGCUGAGGUCUUUUUCUCAUCAAUACUCUUGAACAGGUGUCUAACAGCACGAGAAAUAAUGCCCUGCAACAGAGGAUUGAGCAUCA
B5: chr19:36933551:36933552:+_ENSMUSG00000024811_ENSMUST00000025729|mus_hu|FALSE|FALSE (ssRNA)
RNA: GGGAGUUCUACAGUCCGACGAUCGUGGCCUUUAAAUUCAUAUGCUAAUCUUUCUUUUAACUGUGGUGUGGGAGCCAAGUCUAUAGCACUUUUAUUGUGACAAUUGAGCAGUGUUGGGUCUGCACCAUAACUUAAGAGAAGAGACAACAGAGGAUUGAGCAUCA
B6: chr16:94651144:94651145:+_ENSMUSG00000040785_ENSMUST00000117648|mus_hu|mus_mus_mus_hu_True|8_28 (ssRNA)
RNA: GGGAGUUCUACAGUCCGACGAUCAUUUUCUUGAAUCAAGUGGCGAAUAACAUAGUCCACUGCUUCAUUUAGAAAAUUUCUGCUAGAAAAACAGGUUGUAUAGUCUUCCGUGCUCAGAACUUUCCAAGAGAGCAGCUCUUUGAGCAACAGAGGAUUGAGCAUCA
B7: chr9:122046315:122046316:+_ENSMUSG00000038145_ENSMUST00000120173|mus_mus|motif|central (ssRNA)
RNA: GGGAGUUCUACAGUCCGACGAUCAAGUUUGGUCUGGGUGUCUAUGACUUCAUAGAGACGCACAAUGUUGGGGUGCUGCACGGGUUUCAUGCACCUCACUUCCUGGAAGAGAUGACCAGUGGCUAGAGUGUCCAGCUUCGUCUUCAACAGAGGAUUGAGCAUCA
B8: chr10:123500321:123500322:-_ENSG00000107669_ENST00000369043|hu_hu|FALSE|FALSE (ssRNA)
RNA: GGGAGUUCUACAGUCCGACGAUCACGUUAAGAAACUACACACAACAAAUAUUUGCAAAAUGAAUGAAAAAUAGGAUAAAGCUAUUUAAAAGUCAACAUAGUAAUAUUUAUCUAAAUAAUUUUAAUCAAAUGUACAACAUAUUUCAACAGAGGAUUGAGCAUCA
B9: 12004425_12006022_1406_3pUTR_ENSMUSG00000046139_ENSMUST00000061618|mouse|control|control (ssRNA)
RNA: GGGAGUUCUACAGUCCGACGAUCCUGGUAAUAGAAAUCAUCCAGGUAGGGAUCAGUGCUCUGCAGCUGCAUCAUCUGUAUUUUAGAGACCCAAUCCUUCUCCCGCUGCAACAUUAGAUUAGCAUAUGGAUCCUUCCGGAGAUGCAACAGAGGAUUGAGCAUCA
B10: chr12:103220247:103220248:+_ENSMUSG00000041781_ENSMUST00000047357|mus_mus|FALSE|FALSE (ssRNA)
RNA: GGGAGUUCUACAGUCCGACGAUCCAGGGAAUCAAUAAUGUCCACAGAGAAGUGUUCAUCCCAGCCACAGUCCAACAAAAACCUAAACUCAUCAACCUGGAGAAGAUAGCAAAGAGCGGACUCUUCUUGAACCCCAGAGAGGGUCAACAGAGGAUUGAGCAUCA
B11: chr6:160100356:160100357:-_ENSG00000112096_ENST00000546260|hu_hu|FALSE|FALSE (ssRNA)
RNA: GGGAGUUCUACAGUCCGACGAUCGCUGGGAUCAUUAGGGUAUGACUGAAAGUGAGAAACAGUAAUUUGUAAAACAUUUACCUAAUAAUAGCUUUCCCAAACAGUACUUCCCCUGGAAUUAAAACAGGAAAUACAAUUUAUGUUCAACAGAGGAUUGAGCAUCA
B12: chr7:44664009:44664010:+_ENSG00000105953_ENST00000222673|hu_hu|FALSE|FALSE (ssRNA)
RNA: GGGAGUUCUACAGUCCGACGAUCAGAAUAGCACCGAAUCUGUUGAAAUGUCCUAGCUGCUGCUGGUCUGUUUUGUGAAAAUGUCUUAACAGUCUGGGAAGCCGUCAAUGGCCUCAACUUAGCAGCACAAGUCCUUAAAUGAAACAACAGAGGAUUGAGCAUCA
B13: chr10:71921676:71921677:-_ENSG00000079332_ENST00000373241|hu_hu|motif|central (ssRNA)
RNA: GGGAGUUCUACAGUCCGACGAUCCACACUGCUGAAGCCAUUGUAGAUCCACUCAAAGAUGAAAGACAUUAUUAAUGCUUACGGCGGCCUGAGGGGCUCCUCCGGCAAAACAGCGGCUGGCUCGGACCCUCCCUCAGAGCACACCAACAGAGGAUUGAGCAUCA
B14: chr8:74858975:74858976:-_ENSG00000154582_ENST00000284811|hu_hu|motif|central (ssRNA)
RNA: GGGAGUUCUACAGUCCGACGAUCAACCUUGUACGUAAAAUACAUGCAUACUUUCGAUAGCACAUGUGAAGGUAUCUCUCGGAAAUUGACCUCAUUGGUUUCGUUCUCAGCAAACUGACCUGGGCCACUCAACAUGGCUUUUAUCAACAGAGGAUUGAGCAUCA
B15: chr2:9570881:9570882:+_ENSG00000119203_ENST00000238112|hu_mus|hu_hu_hu_mus_False|28_48 (ssRNA)
RNA: GGGAGUUCUACAGUCCGACGAUCACUUGUCUUCUGAAGGAACCAGGGCAGGGCUCCACAGUGAUCCAAAUGGAAAUGACUGAUCAAUAGGAGAUCAAUCUCAGCUGGGUCAAUUAAGUCAAUGUAAGGAAGGGCAUCCAUUCCCAACAGAGGAUUGAGCAUCA
B16: chr4:151706827:151706828:+_ENSMUSG00000028936_ENSMUST00000139685|mus_mus|motif|central (ssRNA)
RNA: GGGAGUUCUACAGUCCGACGAUCCACUGUGUCUCAAGCCCUCCUCGAGACAGGCACCAGAUAUAACCAACCACCAGCUCGGAGACUCGGGCUGGCCGGAGCCCACCACCCAGCCUCUCGUCUACUUGCUCUGUCAGAUGCAGCCAACAGAGGAUUGAGCAUCA
B17: chr7:149068622:149068623:-_ENSMUSG00000025139_ENSMUST00000001950|mus_hu|mus_mus_mus_hu_False|98_98 (ssRNA)
RNA: GGGAGUUCUACAGUCCGACGAUCGUGAGGCCUCUGAGUGAGGUUCCUGGUCUGUCCUGGGUUAGAGUUGUUAAUAUCACGGAACAUACCAUCUAGAACGUUCCAGUCCCGCCUGACACCUUCAUUCCCAAUGGAGAAGAAAUCCAACAGAGGAUUGAGCAUCA
B18: chr7:141438946:141438947:+_ENSG00000106028_ENST00000265304|hu_mus|hu_hu_hu_mus_True|78_98 (ssRNA)
RNA: GGGAGUUCUACAGUCCGACGAUCGACGAAAUACCUGACAGGUCUUCCUUCGAAACAUUCUAUUUUCUUUUCUUACAACCUAAUCUUUAGGCUUUUCCUAAAGGAAAGAAAGAAAAGAGAAAAAUGAUAAAUCAAGAAACUACACAACAGAGGAUUGAGCAUCA
B19: chr7:65705844:65705845:+_ENSG00000169902_ENST00000304842|hu_mus|hu_hu_hu_mus_False|68_78 (ssRNA)
RNA: GGGAGUUCUACAGUCCGACGAUCAAACGGAUCUUUGUUACAUAAAUAAGGUGCCGGCUCCCCAUGCUUAACGAUAACCUCCAGAAGGAAGGCUUGCAUGGCAGAAUCUAGCACUUCAUCUGUGACACCCGCCUCAUCCAAGCGCAACAGAGGAUUGAGCAUCA
B20: chr12:67699843:67699844:+_ENSG00000111530_ENST00000544619|hu_hu|motif|central (ssRNA)
RNA: GGGAGUUCUACAGUCCGACGAUCAAUAAACUGACCUACUACAGCUGGUCCCUCUUUAGGGCAUGCUCGAGUAAGGGCAGCGGCACAUUUGGCAAUGGAAUAAUAAGACUGCUUAUGAGUAAGAGCUGUGCUCUGAGAGUAAACCAACAGAGGAUUGAGCAUCA
B21: 76201617_76211542_1531_CDS_ENSG00000119685_ENST00000298832|human|control|control (ssRNA)
RNA: GGGAGUUCUACAGUCCGACGAUCUGACAGACCAAGCACAGAACCACCCAACUUCCCUGGCCCUUUCUCCCGGGCUGAGCCCACGAGGUUUUUCAUUUCCGCAUCACUGGCAGAGAGUGGACGGCAACGCUGAGGUUUCUGGAACAACAGAGGAUUGAGCAUCA
B22: 36865624_36867664_294_3pUTR_ENSMUSG00000029192_ENSMUST00000171385|mouse|control|control (ssRNA)
RNA: GGGAGUUCUACAGUCCGACGAUCUUGAGCUUCUUCAGCUGGCUUGGCUGGGAGAUUUGCAGGUCUGUCCUCGAGGAUGAGCGCCGUGGUGGACAGUGGCUCAAAAUCCAGGUUCUUCCUCACAUUCUGCUUGGGAGAGGGUGGCAACAGAGGAUUGAGCAUCA

The target of the assay is T1, UNK ZnF1-3. As to the kind of experiment: nsRBNS (natural sequence RNA bind-n-seq); RBNS binding buffer (assumed for nsRBNS): 25 mM Tris pH 7.5, 150 mM KCl, 3 mM MgCl2, 0.01% Triton X-100, 500 ug/ml BSA, 20 U/ml SUPERase-In, 4 C; UNK is unkempt and MSI1 is Musashi-1; names of the RNAs are library labels; protein concentration not given here; high values mean tight binding.
For the molecule B1, the binding signal amounted to 0.839 enrichment R.

B2 registered a binding signal of 1.2 enrichment R.

For B3, the binding signal was found to be 0.618 enrichment R.

In turn, B4 had a binding signal of 1.28 enrichment R.

As to B5, the binding signal is 2.04 enrichment R.

Take B6: the binding signal amounted to 0.728 enrichment R.

Regarding B7, the binding signal worked out at 0.825 enrichment R.

With B8, the binding signal was 0.853 enrichment R.

Consider B9, for which the binding signal was 1.37 enrichment R.

B10 showed a binding signal of 1.18 enrichment R.

B11 had a binding signal of 1.68 enrichment R.

In turn, B12 had a binding signal of 1.68 enrichment R.

As to B13, the binding signal was 1.38 enrichment R.

In the case of B14, the binding signal came to 0.523 enrichment R.

The molecule B15 showed a binding signal of 1.12 enrichment R.

Molecule B16 displayed a binding signal of 1.01 enrichment R.

B17 had a binding signal of 0.723 enrichment R.

Turning to B18, the binding signal worked out at 0.31 enrichment R.

Regarding B19, the binding signal worked out at 0.299 enrichment R.

B20 had a binding signal of 1.22 enrichment R.

With B21, the binding signal came out at 1.82 enrichment R.

Turning to B22, the binding signal stood at 1.36 enrichment R.
